The values that follow come from publication PMC7144022, “Quinolinecarboxamides Inhibit the Replication of the Bovine Viral Diarrhea Virus by Targeting a Hot Spot for the Inhibition of Pestivirus Replication in the RNA-Dependent RNA Polymerase” (Molecules, 2020).

The target in assay [1] is RCs from MDBK cells infected with the TO502-2403res strain (Bovine viral diarrhea virus, UniProt P19711, F3493P). Kind of assay: Replication complex (RC) assay, TO502-2403res BVDV. It counts as biochemical, bovine viral diarrhea virus (BVDV). The note with it: RCs isolated 14 h post-infection. As for the experimental part:
The replication complex (RC) assay is similar to the one described before. In brief, BVDV-infected MDBK cells were suspended in an ice-cold hypotonic buffer A (10 mM Tris, 10 mM NaCl pH 7.8) and were further disrupted by 50 strokes with a Dounce homogenizer. The disrupted cells were pelleted by centrifugation at 1,000× g for 5 min at 4 °C. The supernatant fraction, containing cytoplasmic material and plasma membranes, was concentrated by high-speed centrifugation at 200,000× g for 20 min at 4 °C. The pellet was resuspended in 120 µL of hypotonic buffer B (10 mM Tris, 10 mM NaCl pH 7.8 and 15% glycerol) and used for an RNA polymerase assay. Replicase reactions were carried out, as described before, with some modifications. The [α-^33P]UTP (3,000 mCi/mmol) was replaced by [α-^33P]CTP (3,000 mCi/mmol). The following incubation, RNA extraction, RNA analysis, and quantification were performed, as previously described.

The subject of assay [2] is TO502-2403res BVDV (F224P). To be noted: read-out: EC50 (µM) of the Indicated Inhibitor; TO502-2403res F224P; SD in brackets.
In assay [3] the test system is TO505-6180res BVDV (F224Y N264D). The note with it: read-out: EC50 (µM) of the Indicated Inhibitor; TO505-6180res F224Y N264D; SD in brackets.

Take `O=C(Nc1ccn(-c2ccccc2)n1)c1cc(-c2ccccc2)nc2ccccc12` [TO502-2403, 2-phenyl-N-(1-phenyl-1H-pyrazol-3-yl)-4-Quinolinecarboxamide]: the “effect on activity of RCs from TO502-2403res infected cells” value in assay [1] is “not susceptible”.
With `C[C@@]1(O)[C@H](O)[C@@H](CO)O[C@H]1n1ccc(N)nc1=O` [2′-C-Met-Cyt], the concentration for a half-maximal effect (EC50) in assay [2] was 14 µM; in assay [3], 2.5 ± 0.4 µM.
On the same counts, the results for `Nc1nc2c(cnn2CCCc2ccc3c(c2)OCO3)c2nc(-c3ccco3)nn12` [LZ37, 7-[3-(1,3-benzodioxol-5-yl)propyl]-2-(2-furyl)-7H-pyrazolo[4,3-e][1,2, 4]triazolo[1,5-c]pyrimidin-5-amine] are above 100 µM and above 100 µM.

A word on the EC50: it is the concentration needed to bring the measured effect to its halfway point.
